Reference: PubChem BioAssay AID686970 (National Center for Advancing Translational Sciences (NCATS), 2013)
Hit rate of the full screen: of about 360,000 compounds, about 6,000 (1.7%) were called active. Inconclusive means that the source gave no clear call. Such entries were picked first, then a sample of the others. Calls follow the shape of the dose curve; as a rule, active = well fitted cell-killing curve with a large enough effect; inconclusive = small, poorly fitted or top-dose-only effect, or effect the other way; inactive = flat fitted curve, though single readings scatter. Potencies of inconclusive entries are left out as doubtful fits.

Test: qHTS for induction of synthetic lethality in tumor cells producing 2HG: qHTS for the HT-1080-NT fibrosarcoma cell line;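 also: NT is the 2HG producing partner of a matched IDH1 knockdown line; nearly all actives have a fitted effect of over 55% in size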;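 as to activity, negative = less viability: 0% = DMSO-treated cells and -100% = media-only wells without cells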
Details: HT-1080-NT fibrosarcoma viability, CellTiter-Glo ATP luminescence, 48 h; activity, negative = less viability: at 46.1 µM (top of the series) unless noted
Procedure, shortened: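 HT-1080-NT; 750 cells/well; 5% FBS RPMI; 48 h compound, 37 degrees C; CellTiter-Glo luminescence; curve fitting and curve-class assignment.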
Potency is read from the fitted curve at half-maximal effect; tags tell the direction and shape of the fitted curve.

SMILES | Potency | activity, negative = less viability
CCc1ccc(C(O)(CC)C(CN2CCOCC2)c2ccccc2)cc1 (stereo not given) | inconclusive [cytotoxic, single point] | 
Cc1cc(N2CCN(C(=O)c3[nH]c(C(F)(F)F)nc3-c3ccccc3)CC2)c2ccccc2n1 | inconclusive [cytotoxic, full curve] | 
Cc1cc(C)cc(NS(=O)(=O)c2ccc3[nH]cc(C(=O)NCc4ccco4)c(=O)c3c2)c1 | active: 2.59 µM | 
Cc1ccnc(NC(=O)c2cc3ccccc3o2)c1 | inconclusive [cytotoxic, partial curve] | 
Cc1ccc(Sc2cc(C(=O)NCCCN(C)C)c3ccccc3n2)cc1 | inconclusive [cytotoxic, single point] | 
CC(C)C1C(=O)N(Cc2cn(Cc3ccco3)nn2)CCS(=O)(=O)N1Cc1ccc(-c2ccc(F)cc2)cc1 (stereo not given) | inconclusive [cytotoxic, single point] | 
Cc1ccc(NC(=O)CSc2nnc(C3CC3)n2CC2CCCO2)c(C)c1 (stereo not given) | inconclusive [rising, partial curve] | 
O=C(COc1ccc([N+](=O)[O-])cc1Cl)NCCc1ccccc1 |  | inactive: 10.1%
OC(CCN1CCOCC1)(c1ccc(Cl)cc1)C1CCCCC1 (stereo not given) |  | inconclusive: -30.8% [cytotoxic]
CN(CCCC1CCCC1)C(=O)c1cc(COc2ccc(F)c(F)c2)on1 |  | inactive: -1.88%
O=C1CCCC[C@@H](CO)[C@H](O)C[C@H](c2ccccc2)O1 |  | inactive: -6.09%
CCc1nc(SCC(=O)Nc2nccs2)c2oc3ccccc3c2n1 | inconclusive [cytotoxic, single point] | 
Cn1ncc2c1NC(c1ccc(F)cc1)SCC2=O (stereo not given) |  | inactive: 4.44%
COc1ccc2c(c1)CCc1c-2nc2ccccc2c1N1CCOCC1 | inconclusive [cytotoxic, single point] | 
CCNC(=O)Oc1ccc[nH]c1=O | inconclusive [cytotoxic, single point] | 
COc1ccc(-c2nc3ccccc3c(C(=O)Nc3ccc(S(=O)(=O)Nc4cc(C)on4)cc3)c2C)cc1 | inconclusive [cytotoxic, single point] | 
Cc1cc2c(c(/C=C/C(=O)c3ccccc3)c1)OC1(C=C2)Oc2ccccc2C(=O)N1C (stereo not given) |  | inconclusive: -26.8% [cytotoxic]
Cc1cccc(NC(=O)c2nc[nH]c2C(=O)N[C@@H](C)C(=O)OC(C)(C)C)c1 |  | inactive: -11.3%
C=CCNc1nc2cc(-c3cccc(NC(C)=O)c3)sc2c(=O)n1C | inconclusive [cytotoxic, single point] | 
Cc1cccc(NC(=O)CSc2nnc(-c3cc(C)n(-c4ccccc4)c3C)o2)c1C |  | inactive: -11.7%
COCCN(CC(=O)Nc1cccc(C)c1C)C(=O)/C=C/c1ccc2c(c1)OCCO2 |  | inactive: 0.66%
Cc1cccc(NC(=O)c2sc3nc(C)nc(N4CCOCC4)c3c2C)c1 |  | inactive: 0.877%
O=C(Nc1cccc2cccnc12)c1ccc2sc([C@H]3C[C@H](O)[C@@H](CO)O3)nc2c1 | inconclusive [cytotoxic, single point] | 
COc1ccc(CNC(=O)Cn2nc(C)c3c(C)n(-c4ccc(C)cc4)nc3c2=O)cc1OC |  | inconclusive: -2.44% [cytotoxic]

SMILES | Potency | activity, negative = less viability
O=C(CN1CC[n+]2c(-c3ccccc3)csc21)c1ccc(Br)cc1 | active: 20.6 µM | 
Cc1nc(-c2ccc(NC(=O)c3ccc(Br)o3)cc2)cs1 | inconclusive [cytotoxic, single point] | 
Cc1ccc(CNC(=O)C2CCC(=O)N2Cc2ccc(F)cc2)cc1 (stereo not given) | inconclusive [rising, single point] | 
CCCCN1Cc2cc(C(=O)c3cc(F)ccc3O)cnc2NC1=O | inconclusive [cytotoxic, single point] | 
Cc1ccc(CNC(=O)c2cn(C3CCCCC3)c(=O)c3c2c2ccccc2n3C)o1 | inconclusive [cytotoxic, single point] | 
O=C1C(Cl)=C(N2CCC(C(=O)O)CC2)C(=O)c2ccccc21 | inconclusive [cytotoxic, single point] | 
COc1ccccc1NS(=O)(=O)c1ccc(-c2cnc(C3CC3)o2)cc1 | inconclusive [cytotoxic, full curve] | 
O=C1Nc2ccccc2/C1=C\C(=O)c1ccccc1 | active: 18.4 µM | 
Cc1ccc([C@@H]2C[C@H]3[C@@H](CN2S(=O)(=O)c2ccc(C)cc2)C(=O)C[C@@H](c2ccccc2F)N3S(=O)(=O)c2ccc(C)cc2)cc1 |  | inactive: 7.11%
Oc1ccc(N2CCN(C(=S)NCCc3ccccc3)CC2)cc1 | inconclusive [cytotoxic, full curve] | 
CCOc1ccc(-c2nc(CN3CCCCC3CCn3cccn3)c(C)o2)cc1 (stereo not given) | inconclusive [rising, single point] | 
Cn1c(-c2c(N)n(CCCc3ccccc3)c3nc4ccccc4nc23)nc2ccccc21 | inconclusive [cytotoxic, single point] | 
COc1ccc2oc(C(=O)N3CCN(c4ncccn4)CC3)c(C)c2c1 |  | inactive: 0%
O=C(COc1ccccc1Cl)NCCCNC(=O)c1cccnc1 | active: 25.9 µM | 
O=C1CCCN1CCCNc1nc(NCc2cccs2)nc2ccsc12 | inconclusive [cytotoxic, single point] | 
CCc1ccc(/C=N/NC(=O)c2cc(C3CC3)nc3ccccc23)s1 | inconclusive [cytotoxic, full curve] | 
Cc1ccc(C)c(CC(=O)N2CCCCC2c2cc(C(=O)Nc3cccc(C#N)c3)no2)c1 (stereo not given) |  | inconclusive: -24.2% [cytotoxic]
OCC1CSC(=S)N1Cc1ccccc1 (stereo not given) | inconclusive [rising, partial curve] | 
COc1ccc(-c2c([C@H]3[C@H]4C=CC[C@@H](C)[C@@H]4C(=O)N3Cc3ccccc3)ccc3ccccc23)cc1 | inconclusive [cytotoxic, single point] | 
COC(=O)C1=C(C)N(CCc2ccccc2)C(=O)C1(NS(=O)(=O)c1ccc(NC(C)=O)cc1)C(F)(F)F (stereo not given) | active: 10 µM | 
CCC(C)NCCOCCOc1ccccc1-c1ccccc1 (stereo not given) | inconclusive [cytotoxic, single point] | 
CCOc1cc(CNCCc2ccc(S(N)(=O)=O)cc2)ccc1OCc1ccccc1 | inconclusive [cytotoxic, single point] | 
CC(=O)Nc1ccc(N2CCCCC2)c(C(=O)Nc2cccc(C)c2)c1 |  | inactive: -7.11%
O=S(=O)(c1ccc(S(=O)(=O)N2CCC3(CC2)OCCO3)cc1)N1CCCC1 |  | inactive: 9.69%

SMILES | Potency | activity, negative = less viability
O=C(Nc1ccc(OC(F)F)c(Cl)c1)C(c1ccccc1)c1ccccc1 | inconclusive [cytotoxic, single point] | 
Cn1nc(C2CC2)cc1NC(=O)C1(C)CCN1C(=O)CC(c1ccccc1)c1ccccc1 (stereo not given) |  | inactive: 2.42%
COc1ccc(NC(=O)c2cc(C3CCCCN3S(=O)(=O)c3cn(C)cn3)on2)c(C)c1 (stereo not given) |  | inactive: 5.86%
COc1ccccc1-c1cn[nH]c1-c1ccc(OCc2ccc(F)cc2)cc1O | inconclusive [cytotoxic, single point] | 
CCCC1CCc2c(sc(NC(=O)OCC)c2C#N)C1 (stereo not given) | inconclusive [cytotoxic, partial curve] | 
CC1(C(=O)Nc2ccc(Cl)c(C(F)(F)F)c2)Cc2c(-c3cccc(C(N)=O)c3)ccnc2O1 (stereo not given) | active: 23.1 µM | 
O=C(NCC(=O)N1CCN(c2ccccc2)CC1)c1ccc(Cl)cc1 |  | inactive: 0.409%
Cc1ccc2[nH]c3c(c2c1)CN(C(=O)CN1CC(C)OC(C)C1)CC3 (stereo not given) |  | inactive: 0.743%
COc1cc(OC)cc(C(=O)N[C@H](C(=O)Nc2nc(-c3ccc(OC)c(OC)c3)cs2)C(C)C)c1 | inconclusive [cytotoxic, single point] | 
O=C(CCl)Nc1ccc(N2CCCCCC2)cc1 | active: 23.1 µM | 
c1ccc(COc2ccc(-c3cc4nc(NCCOc5ccccc5)ccn4n3)cc2)cc1 |  | inactive: -25.5%
Cc1ccc(NC(=O)c2c(NC(=O)CCC(=O)O)sc3c2CCCCC3)cc1 | inconclusive [cytotoxic, single point] | 
COc1ccc(NC(=O)Cn2nnc(C(=O)NCc3ccccc3)c2N)c(OC)c1 | inconclusive [cytotoxic, single point] | 
CCC1CCCCN1CCCNC(=O)c1ccc2c(c1)c(C)c(C)n2CC (stereo not given) | inconclusive [cytotoxic, single point] | 
COc1cccc2sc(N(CCCN(C)C)C(=O)c3ccc(S(=O)(=O)N4CCc5ccccc5C4)cc3)nc12 | inconclusive [cytotoxic, single point] | 
CCN1CCc2c(C#N)c(N3CCCCC3)nc(NCc3ccccc3)c2C1 | inconclusive [cytotoxic, single point] | 
c1ccc(CC2CCN(C3=Nc4cccc5cccc3c45)CC2)cc1 | inconclusive [cytotoxic, single point] | 
COc1cc(CNc2ccc(O)cc2)cc(Br)c1OCc1ccccc1 | inconclusive [cytotoxic, single point] | 
O=C(c1ccccc1)N1CCN(c2ccccc2)CC1 |  | inactive: -5.07%
COc1ccc(-c2cc(C(=O)NN)[nH]n2)cc1OC | inconclusive [cytotoxic, single point] | 
Cc1ccc(C)c(NC(=O)c2ccccc2NS(=O)(=O)c2cc([N+](=O)[O-])ccc2C)c1 | active: 10.3 µM | 
O=C1CCC2(CC1)NC(=O)N(c1ccccc1)N2 | inconclusive [cytotoxic, partial curve, poor fit] | 
